Reference: the supplement of paper PMC8728848
Some of the results follow.

What was measured:
Test in all cases: glycan array binding signal (z-score within array); higher = stronger binding
Settings in all cases: glycan notation: IUPAC condensed, linker removed
[1] = target: Neu5Ac(a2-3)Gal6S(b1-4)[Fuc(a1-3)]GlcNAc
How it was run: (§1)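 From the Consortium for Functional Glycomics database, 3228 arrays were curated, keeping only those whose protein sequence was available. Binding is given as a within-array Z-score averaged across arrays sharing a protein sequence and across linkers. Negative Z-scores can be read as non-binding.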

Neu5Ac(a2-3)GalNAc = target: Neu5Ac(a2-3)GalNAc
How it was run: as §1

[2] = target: Neu5Ac(a2-3)GalNAc(b1-4)GlcNAc
How it was run: as §1

[3] = target: Neu5Ac(a2-3)[GalNAc(b1-4)]Gal(b1-4)Glc
How it was run: as §1

[4] = target: Neu5Ac(a2-3)[GalNAc(b1-4)]Gal(b1-4)GlcNAc
How it was run: as §1

[5] = target: Neu5Ac(a2-3)[Neu5Ac(a2-6)]GalNAc
How it was run: as §1

Neu5Ac(a2-6)Gal = target: Neu5Ac(a2-6)Gal
How it was run: as §1

Neu5Ac(a2-6)Gal(b1-4)Glc = target: Neu5Ac(a2-6)Gal(b1-4)Glc
How it was run: as §1

[6] = target: Neu5Ac(a2-6)Gal(b1-4)GlcNAc
How it was run: as §1

[7] = target: Neu5Ac(a2-6)Gal(b1-4)GlcNAc(b1-2)Man(a1-3)[Gal(b1-4)GlcNAc(b1-2)Man(a1-6)]Man(b1-4)GlcNAc(b1-4)GlcNAc
How it was run: as §1

[8] = target: Neu5Ac(a2-6)Gal(b1-4)GlcNAc(b1-2)Man(a1-3)[GlcNAc(b1-2)Man(a1-6)]Man(b1-4)GlcNAc(b1-4)GlcNAc
How it was run: as §1

[9] = target: Neu5Ac(a2-6)Gal(b1-4)GlcNAc(b1-2)Man(a1-3)[GlcNAc(b1-2)Man(b1-4)GlcNAc(b1-2)Man(a1-6)]Man(b1-4)GlcNAc(b1-4)GlcNAc
How it was run: as §1

[10] = target: Neu5Ac(a2-6)Gal(b1-4)GlcNAc(b1-2)Man(a1-3)[Neu5Ac(a2-6)Gal(b1-4)GlcNAc(b1-2)Man(a1-6)]Man(b1-4)GlcNAc(b1-4)GlcNAc
How it was run: as §1

[11] = target: Neu5Ac(a2-6)Gal(b1-4)GlcNAc(b1-2)Man(a1-6)[Gal(b1-4)GlcNAc(b1-2)Man(a1-3)]Man(b1-4)GlcNAc(b1-4)GlcNAc
How it was run: as §1

[12] = target: Neu5Ac(a2-6)Gal(b1-4)GlcNAc(b1-2)Man(a1-6)[GlcNAc(b1-2)Man(a1-3)]Man(b1-4)GlcNAc(b1-4)GlcNAc
How it was run: as §1

[13] = target: Neu5Ac(a2-6)Gal(b1-4)GlcNAc(b1-3)Gal(b1-4)GlcNAc
How it was run: as §1

[14] = target: Neu5Ac(a2-6)Gal(b1-4)GlcNAc(b1-3)Gal(b1-4)[Fuc(a1-3)]GlcNAc(b1-3)Gal(b1-4)[Fuc(a1-3)]GlcNAc
How it was run: as §1

[15] = target: Neu5Ac(a2-6)Gal(b1-4)GlcNAc6S
How it was run: as §1

Neu5Ac(a2-6)GalNAc = target: Neu5Ac(a2-6)GalNAc
How it was run: as §1

[16] = target: Neu5Ac(a2-6)GalNAc(b1-4)GlcNAc
How it was run: as §1

Neu5Ac(a2-8)Neu5Ac = target: Neu5Ac(a2-8)Neu5Ac
How it was run: as §1

[17] = target: Neu5Ac(a2-8)Neu5Ac(a2-3)Gal(b1-4)Glc
How it was run: as §1

[18] = target: Neu5Ac(a2-8)Neu5Ac(a2-3)[GalNAc(b1-4)]Gal(b1-4)Glc
How it was run: as §1

[19] = target: Neu5Ac(a2-8)Neu5Ac(a2-8)Neu5Ac
How it was run: as §1

[20] = target: Neu5Ac(a2-8)Neu5Ac(a2-8)Neu5Ac(a2-3)Gal(b1-4)Glc
How it was run: as §1

[21] = target: Neu5Ac(a2-8)Neu5Ac(a2-8)Neu5Ac(a2-3)[GalNAc(b1-4)]Gal(b1-4)Glc
How it was run: as §1

[22] = target: Neu5Ac(a2-8)Neu5Ac(a2-8)Neu5Ac(a2-8)Neu5Ac(a2-3)[GalNAc(b1-4)]Gal(b1-4)Glc
How it was run: as §1

[23] = target: Neu5Ac(b2-6)Gal(b1-4)GlcNAc
How it was run: as §1

Neu5Ac(b2-6)GalNAc = target: Neu5Ac(b2-6)GalNAc
How it was run: as §1

[24] = target: Neu5Ac9Ac(a2-6)Gal(b1-4)GlcNAc
How it was run: as §1

[25] = target: Neu5Gc(a2-3)Gal(b1-3)GlcNAc
How it was run: as §1

[26] = target: Neu5Gc(a2-3)Gal(b1-3)[Fuc(a1-4)]GlcNAc
How it was run: as §1

Neu5Gc(a2-3)Gal(b1-4)Glc = target: Neu5Gc(a2-3)Gal(b1-4)Glc
How it was run: as §1

[27] = target: Neu5Gc(a2-3)Gal(b1-4)GlcNAc
How it was run: as §1

[28] = target: Neu5Gc(a2-3)Gal(b1-4)[Fuc(a1-3)]GlcNAc
How it was run: as §1

[29] = target: Neu5Gc(a2-6)Gal(b1-4)GlcNAc
How it was run: as §1

Neu5Gc(a2-6)GalNAc = target: Neu5Gc(a2-6)GalNAc
How it was run: as §1

[30] = target: Neu5Gc(b2-6)Gal(b1-4)GlcNAc
How it was run: as §1

B1: SLR2P2A3 (Tachypleus tridentatus), TAL2_TACTR (protein)
chain: MEKGTPPTHDSDNWMGRAKKIGNGGWNQFQFLFFDPNGYLYAVSKDKLYKASPPQSDTDNWIARATEIGSGGWSGSKFLFFHPNGYLYAVHGQRLYKALPPVSNQD
B1 was tested. Which “glycan array binding signal (z-score)” value [1] did it give?
The value was -0.561.

What about the “glycan array binding signal (z-score)” value (Neu5Ac(a2-3)GalNAc) of the same binder?
Its value is -0.397.

And the “glycan array binding signal (z-score)” value [2]?
The value was -0.293.

And the “glycan array binding signal (z-score)” value [3]?
Its value is -0.322.

And the “glycan array binding signal (z-score)” value [4]?
Its value is -0.428.

And the “glycan array binding signal (z-score)” value [5]?
The value was -0.201.

And the “glycan array binding signal (z-score)” value (Neu5Ac(a2-6)Gal)?
The value was 0.457.

And the “glycan array binding signal (z-score)” value (Neu5Ac(a2-6)Gal(b1-4)Glc)?
Its value is -0.383.

What about the “glycan array binding signal (z-score)” value [6] of the same binder?
Its value is 0.1.

And the “glycan array binding signal (z-score)” value [7]?
The value was -0.472.

What about the “glycan array binding signal (z-score)” value [8] of the same binder?
The value was -0.504.

And the “glycan array binding signal (z-score)” value [9]?
Its value is -0.234.

What about the “glycan array binding signal (z-score)” value [10] of the same binder?
Its value is -0.151.

And the “glycan array binding signal (z-score)” value [11]?
The value was -0.308.

What about the “glycan array binding signal (z-score)” value [12] of the same binder?
Its value is -0.496.

What about the “glycan array binding signal (z-score)” value [13] of the same binder?
The value was -0.076.

And the “glycan array binding signal (z-score)” value [14]?
The value was -0.495.

What about the “glycan array binding signal (z-score)” value [15] of the same binder?
The value was -0.494.

What about the “glycan array binding signal (z-score)” value (Neu5Ac(a2-6)GalNAc) of the same binder?
The value was -0.16.

And the “glycan array binding signal (z-score)” value [16]?
The value was -0.303.

What about the “glycan array binding signal (z-score)” value (Neu5Ac(a2-8)Neu5Ac) of the same binder?
Its value is -0.527.

And the “glycan array binding signal (z-score)” value [17]?
The value was -0.296.

And the “glycan array binding signal (z-score)” value [18]?
The value was -0.279.

And the “glycan array binding signal (z-score)” value [19]?
Its value is -0.163.

And the “glycan array binding signal (z-score)” value [20]?
The value was -0.509.

And the “glycan array binding signal (z-score)” value [21]?
The value was -0.261.

What about the “glycan array binding signal (z-score)” value [22] of the same binder?
Its value is -0.513.

What about the “glycan array binding signal (z-score)” value [23] of the same binder?
The value was -0.452.

And the “glycan array binding signal (z-score)” value (Neu5Ac(b2-6)GalNAc)?
Its value is -0.308.

What about the “glycan array binding signal (z-score)” value [24] of the same binder?
Its value is -0.421.

What about the “glycan array binding signal (z-score)” value [25] of the same binder?
The value was -0.355.

What about the “glycan array binding signal (z-score)” value [26] of the same binder?
The value was -0.071.

What about the “glycan array binding signal (z-score)” value (Neu5Gc(a2-3)Gal(b1-4)Glc) of the same binder?
The value was -0.253.

What about the “glycan array binding signal (z-score)” value [27] of the same binder?
The value was -0.059.

What about the “glycan array binding signal (z-score)” value [28] of the same binder?
Its value is -0.349.

What about the “glycan array binding signal (z-score)” value [29] of the same binder?
The value was 0.284.

And the “glycan array binding signal (z-score)” value (Neu5Gc(a2-6)GalNAc)?
The value was -0.125.

What about the “glycan array binding signal (z-score)” value [30] of the same binder?
Its value is -0.08.
